Molecules are shown by their SMILES. Screen size: about 310,000 compounds; about 14,000 (4.5%) showed an effect of 50% or more. The effect is printed as a negative number. Some of the results follow.
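Further: peak tail current of the secondary pulse compared with the same well before compound.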

The experiment deals with human ether-à-go-go-related gene (hERG) potassium channel (human, UniProt Q12809). Briefly: primary screen, population patch clamp on CHO cells stably expressing hERG.
Sequence of human ether-à-go-go-related gene (hERG) potassium channel (Q12809 whole entry, looked up): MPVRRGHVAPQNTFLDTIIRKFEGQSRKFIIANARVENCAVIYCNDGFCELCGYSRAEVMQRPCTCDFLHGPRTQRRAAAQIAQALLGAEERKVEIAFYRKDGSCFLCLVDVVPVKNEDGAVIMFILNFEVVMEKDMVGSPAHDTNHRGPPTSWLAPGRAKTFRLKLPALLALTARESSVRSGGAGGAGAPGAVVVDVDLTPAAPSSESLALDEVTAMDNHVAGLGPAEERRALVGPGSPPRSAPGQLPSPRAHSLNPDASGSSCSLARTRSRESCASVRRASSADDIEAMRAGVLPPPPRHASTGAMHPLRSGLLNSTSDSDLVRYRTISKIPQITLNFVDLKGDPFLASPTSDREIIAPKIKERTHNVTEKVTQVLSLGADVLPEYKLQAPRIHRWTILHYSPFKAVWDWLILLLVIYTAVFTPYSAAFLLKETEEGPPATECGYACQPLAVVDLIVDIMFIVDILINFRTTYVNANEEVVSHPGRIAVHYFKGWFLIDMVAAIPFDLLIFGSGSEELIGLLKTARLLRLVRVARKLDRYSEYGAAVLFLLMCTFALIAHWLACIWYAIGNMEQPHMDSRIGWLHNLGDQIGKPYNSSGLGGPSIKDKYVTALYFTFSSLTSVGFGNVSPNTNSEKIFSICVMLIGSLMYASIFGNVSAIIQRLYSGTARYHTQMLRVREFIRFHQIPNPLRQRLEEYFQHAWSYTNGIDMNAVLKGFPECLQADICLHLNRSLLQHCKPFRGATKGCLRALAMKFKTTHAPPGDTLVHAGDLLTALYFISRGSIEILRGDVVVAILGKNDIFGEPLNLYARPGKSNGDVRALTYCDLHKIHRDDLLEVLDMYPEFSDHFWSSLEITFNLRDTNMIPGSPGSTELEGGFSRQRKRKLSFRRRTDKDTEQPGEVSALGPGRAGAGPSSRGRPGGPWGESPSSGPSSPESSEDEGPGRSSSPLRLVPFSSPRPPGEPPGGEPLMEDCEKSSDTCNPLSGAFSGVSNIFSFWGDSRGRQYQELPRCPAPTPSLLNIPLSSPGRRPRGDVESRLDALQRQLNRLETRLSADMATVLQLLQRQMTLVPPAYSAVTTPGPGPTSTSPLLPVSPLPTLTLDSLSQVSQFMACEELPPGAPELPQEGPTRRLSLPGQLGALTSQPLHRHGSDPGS
Turning to `O=C(CNc1cc(S(=O)(=O)N2CCOCC2)ccc1NCC1CCCO1)Nc1ccc(F)c(F)c1` (stereo not drawn), the “hERG current change (%, negative = inhibition) at 10uM” value was -24.4%.
On to `Cc1cccc(N=C2NC(=O)S/C2=C\c2ccco2)c1`, for which the “hERG current change (%, negative = inhibition) at 10uM” value is on record as 8.61%.
Take `COCCn1c(COc2cccc(OC)c2)nnc1SCC(=O)NC1CCCC1`: the “hERG current change (%, negative = inhibition) at 10uM” value is listed as -7.67%.
For `O=C(CCc1nnc(CCc2c[nH]c3ccccc23)o1)NC1CCC1`, the “hERG current change (%, negative = inhibition) at 10uM” value was 1.01%.
Take `CSCCC(NS(=O)(=O)c1ccc2[nH]c(=O)c(=O)[nH]c2c1)C(=O)O` (stereo not drawn): the “hERG current change (%, negative = inhibition) at 10uM” value was 1.26%.
The value for `COc1ccc(Nc2cccc3ccccc23)cc1` was 13.2%.
On to `CCOc1ccc(CCNC(=O)CSc2n[nH]c(N)n2)cc1OCC`, for which the “hERG current change (%, negative = inhibition) at 10uM” value is given as 16.7%.
With `Cc1nc2scc(C)n2c(=O)c1S(=O)(=O)Nc1ccc(N2CCOCC2)c(Cl)c1`, the “hERG current change (%, negative = inhibition) at 10uM” value is recorded as 14.8%.
Consider `COC(C(=O)Nc1ccnn1C1CCN(Cc2ccccn2)CC1)c1ccccc1` (stereo not drawn), for which the “hERG current change (%, negative = inhibition) at 10uM” value is reported as 10.4%.
The value for `O=C(Nc1nc2ccc(Cl)cc2s1)C1CC1` was 28.7%; that for `CSc1ccccc1OCc1cc(C(=O)N2CCSCC2)no1` was 0.366%; that for `CC(C)OCP(=O)(c1ccccc1)c1ccccc1` was 2.96%.
On to `O=C(O)[C@H](Cc1ccccc1)NC(=O)N1CCOCC1`, for which the “hERG current change (%, negative = inhibition) at 10uM” value is given as -7.49%.
As to `COC(=O)C1CCN(C(=O)Cc2ccc(OC)c(OC)c2)CC1`, the “hERG current change (%, negative = inhibition) at 10uM” value turned out to be 0.292%.
For `COC(=O)C1CCN(C(=O)COC(=O)C2CCN(S(=O)(=O)c3ccc4c(c3)OCCO4)CC2)CC1` the value was 11.2%; for `COCCN(C(=O)COC(=O)CCC(=O)c1ccc(C)cc1)c1c(N)n(Cc2ccccc2)c(=O)[nH]c1=O`, -6.05%.
Regarding `COc1ccc(S(=O)(=O)Oc2ccc3cccc(N)c3c2)cc1`, the “hERG current change (%, negative = inhibition) at 10uM” value is on record as 4.34%.
Consider `CCOc1cc(CN2CCOCC2)cc(C(C)=O)c1.Cl`, for which the “hERG current change (%, negative = inhibition) at 10uM” value worked out at 3.45%.
In the case of `Cc1c(Cl)cnc(NC(=O)COC(=O)c2nn(C)c(=O)c3ccccc23)c1Cl`, the “hERG current change (%, negative = inhibition) at 10uM” value is -1.18%.
Regarding `Cc1nnsc1C(=O)Nc1ccc(Cl)cc1`, the “hERG current change (%, negative = inhibition) at 10uM” value is -7.64%.
For `C=CCn1c(SCC(=O)c2c(N)n(C)c(=O)n(C)c2=O)nnc1-c1ccccc1F` the value was 8.2%.
`CC(=O)Nc1ccc(OS(=O)(=O)c2ccccc2C)cc1`: the “hERG current change (%, negative = inhibition) at 10uM” value is given as 23.5%.
As to `Cc1cc(NC(=O)CCN2CC(C)OC(C)C2)ccc1Br.Cl` (stereo not drawn), the “hERG current change (%, negative = inhibition) at 10uM” value is listed as -7.73%.
The value for `CCN1C(=O)[C@H]2[C@@H](c3ccc(-c4ccc(Cl)c(Cl)c4)cc3)N[C@@](C)(C(=O)OC)[C@H]2C1=O.O=C(O)C(F)(F)F` was 10.6%; that for `C=CCn1c(SCC(=O)Nc2ccc(Cl)cn2)nnc1C1CC1` was -5.04%.
For the molecule `Cc1cc(C)c(C#N)c(SCC(=O)N2CCN(Cc3ccccc3)CC2)n1`, the “hERG current change (%, negative = inhibition) at 10uM” value was -13.7%.
For the molecule `O=S1(=O)N=C(N(CCO)/N=C/c2ccccc2F)c2ccccc21`, the “hERG current change (%, negative = inhibition) at 10uM” value was -3.55%.
With `CCOC(=O)C1CCN(c2c(Nc3ccc(C)c(C)c3)c(=O)c2=O)CC1`, the “hERG current change (%, negative = inhibition) at 10uM” value is on record as -12.6%.
The value for `C=CCOc1cccc(C(=O)N(C)C2CCCN(Cc3ccccc3F)C2)c1` (stereo not drawn) was -7.06%; that for `CC(C(=O)c1ccc(Cl)cc1Cl)n1cncn1.O=[N+]([O-])O` (stereo not drawn) was 6.07%.
Consider `C[N+](C)=C1SCC(C)(/C=N/O)S1.[Br-]` (stereo not drawn), for which the “hERG current change (%, negative = inhibition) at 10uM” value amounted to 17.4%.
The value for `O=C(NC1CC1)c1cc(OCC(F)(F)F)ccc1OCC(F)(F)F` was -7.48%.
Consider `Cc1cc(=S)cc(C)n1CCO`, for which the “hERG current change (%, negative = inhibition) at 10uM” value was 15.8%.
The value for `Cc1c(Cc2ccccc2)c(=O)oc2cc(OCC(=O)N3CCC(C(N)=O)CC3)ccc12` was -5.95%.
With `O=C([O-])c1ccc(-[n+]2c(-c3ccccc3)cc(-c3ccccc3)cc2-c2ccccc2)cc1`, the “hERG current change (%, negative = inhibition) at 10uM” value is -0.807%.
For `Cc1ccnc(N/C=C(/NC(=O)c2ccccc2)C(=O)N/N=C\c2ccc(Cl)cc2)n1`, the “hERG current change (%, negative = inhibition) at 10uM” value is given as -22.6%.
In the case of `CC(C)N(Cc1ccccc1)C(=O)CCc1ccccc1`, the “hERG current change (%, negative = inhibition) at 10uM” value was -9.16%.
The value for `O=S(=O)(Nc1ncccn1)c1ccc(-n2cnnn2)cc1` was 9.22%; that for `CCc1nnc(NC(=O)CSc2nnc(C(C)NC(=O)c3ccccc3)n2C)s1` (stereo not drawn) was 29.3%; that for `Cl.O=C(Cc1ccccn1)Nc1ccccc1` was 7.99%.
For `CCN(CCn1cccn1)C(=O)c1cccc(OC2CCN(S(C)(=O)=O)CC2)c1` the value was 14.1%; for `COc1ccc(C)cc1NC(=O)CN(c1ccc(F)cc1)S(C)(=O)=O`, -22.8%.
Take `CCCCC(=O)Nc1cccc(-c2cn3ccsc3n2)c1`: the “hERG current change (%, negative = inhibition) at 10uM” value was -2.04%.
With `CCCCC1=CC2=CC(=O)C(C)(OC(=O)CC)C(=O)C2=CN1CCCCO` (stereo not drawn), the “hERG current change (%, negative = inhibition) at 10uM” value came out at 0.395%.
As to `CC(OC(=O)CCOc1ccccc1)C(=O)Nc1ccc(Cl)cn1` (stereo not drawn), the “hERG current change (%, negative = inhibition) at 10uM” value worked out at 5.41%.

The values above are taken from article PMC4336329 (PLoS ONE, 2015).
